# Screen size: about 360,000 compounds; about 17,000 (4.7%) were called active. Inconclusive means that the source gave no clear call. Such entries were picked first, then a sample of the others. No stated cut-off is given here; in the data, active means activity change below about -50%; inconclusive means mostly about -30% to -49%; inactive means weaker than that.
# Assay: qHTS for Inhibitors of Inflammasome Signaling: IL-1-beta AlphaLISA Primary Screen
# Settings: THP-1 LPS/ATP IL-1B secretion, 16 h; at 57.5 µM, active compounds read low
# Outline: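 Secreted IL-1B measured by AlphaLISA bead assay after 16 h compound exposure of THP-1 cells; compounds (final up to 57.5 uM) added 1 h before LPS (250 ng/mL) and ATP (1.25 mM) stimulation; lower signal means less secretion.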
# On the % scale 0 is the no-effect control and ±100 the full control effect.
row,SMILES,activity change
1,CCOc1ccc2nc(C)cc(Nc3cccc([N+](=O)[O-])c3)c2c1,active: -118%
2,CN(Cc1ccnc2ccccc12)C(=O)C1CCC(=O)N(Cc2ccccc2F)C1 (centres undefined),inactive
3,CN(CCO)c1ccc(C(C(=O)c2ccccc2)c2ccc(N(C)CCO)cc2)cc1,inconclusive: -43.9%
4,O=c1c(Cl)c(N2CCN(S(=O)(=O)c3ccc(F)cc3)CC2)cnn1-c1cccc(Cl)c1,inconclusive: -34.7%
5,COc1ccc(CCC(=O)NNC(=O)c2cc(Cl)ccc2OC)cc1,inactive: 4.07%
6,COC(=O)c1[nH]c2ccc(Br)cc2c1NC(=O)CN1CCCCC1CCO (centres undefined),inactive: -20.7%
7,CCCCc1c(O)nc(SCC(=O)N2CCCCCC2)[nH]c1=O,inconclusive: -42.2%
8,COc1ccc(NC(=S)N(CCC(C)C)C2CCN(C(C)C)CC2)cc1,inconclusive: -34.4%
9,Cc1ccc(NC(=O)Cn2c(=O)c3cccn3c3ccccc32)c(Cl)c1,inconclusive: -38.9%
10,O=C(C[n+]1ccn(CCCNP2(=O)C=C(c3ccccc3)OC(c3ccccc3)=C2)c1)c1cccs1,inconclusive: -46.7%
11,CN1CCN(Cc2cccc(Oc3ccc(Cl)cc3)c2)CC1,inconclusive: -43.6%
12,COc1ccc(-c2cc(C(=O)Nc3c(C)nn(Cc4ccccc4Cl)c3C)no2)cc1OC,inactive: -16.3%
13,C#CCN(C[C@H]1[C@H](OC(=O)NCCCCCC)[C@H](OC(=O)NCCCCCC)C[C@H]2C(=O)N(c3ccccc3)C(=O)[C@@H]12)S(=O)(=O)c1ccc(C)cc1,inconclusive: -36.8%
14,CCOc1ccccc1N1CCN(C(=S)NCc2ccc(Cl)cc2)CC1,inconclusive: -38.7%
15,O=C(Cn1nnc(-c2cc(C(F)(F)F)cc(C(F)(F)F)c2)n1)NNC(=S)Nc1ccc(Cl)cc1,inactive: -12.4%
16,Cc1ccc(NCCC(=O)c2cccs2)cc1C,inactive: -21.8%
17,O=C(Cn1c2ccccc2c(=O)c2ccccc21)Nc1cccc(F)c1,inactive: 13.1%
18,N#CCSc1nc2cc(C(=O)N3CCCC3)ccc2c(=O)n1Cc1ccccc1,active: -52.6%
19,O=C(N[C@H]1c2ccccc2C[C@H]1O)[C@H]1O[C@@H](n2ccc(=O)[nH]c2=O)[C@H](O)[C@@H]1O,inactive: 9.04%
20,COc1ccc(C(=O)/C(=C/O)N=Nc2ccc(F)cc2)cc1,active: -98.5%
21,CSCCC(c1nc2ccccc2[nH]1)n1c(-c2ccc3ncccc3c2)nc2ccccc21 (centres undefined),inconclusive: -31%

row,SMILES,activity change
1,Cc1cc2c(c(C)nn2-c2ccccc2)c(=O)o1,inactive: 10.3%
2,C=CCN(Cc1ccc(Cl)s1)C(=O)CNC(=O)CNC(=O)c1ccc(Cl)cc1Cl,inconclusive: -44.5%
3,CC(=O)Nc1cccc(OCCCNC(=O)c2ccc(C(C)(C)C)cc2)c1,inactive: 23.1%
4,Cc1ccc(-c2ccc(/C=N/O)o2)cc1[N+](=O)[O-],inconclusive: -31.6%
5,COC(=O)[C@]12CCCCC=C1N(Cc1cccc3ccccc13)C(=O)[C@H](CC(=O)NCC13CC4CC(CC(C4)C1)C3)C2,inconclusive: -37.1%
6,CN1CCN(C2=Nc3c(Cl)cc(Cl)c4cccc2c34)CC1,active: -53.3%
7,Cc1ccccc1C(=O)NC1CC2CCCC(C1)N2Cc1ccccc1 (centres undefined),inconclusive: -36.6%
8,CN1CCN(S(=O)(=O)c2cccc(C(=O)N(C)CC(=O)Nc3ccc(Cl)c(Cl)c3)c2)CC1,inconclusive: -30.1%
9,COc1ccc(S(=O)(=O)N(CCCN2CCCC2=O)Cc2cc3cc(C)c(C)cc3[nH]c2=O)cc1,active: -72.6%
10,Cc1c(C)c2ccc(OC(C)C(=O)NC3CC(C)(C)NC(C)(C)C3)cc2oc1=O (centres undefined),inconclusive: -33.4%
11,CCc1nc2ccc(C(=O)NCc3ccccc3OC)cn2c1N(CCC(C)C)CCN(C)C,inconclusive: -33.1%
12,CC(=O)N1CCN(c2ccc(Oc3ccc([N+](=O)[O-])c(C(F)(F)F)c3)cc2)CC1,active: -82.5%
13,COc1ccc([C@H]2CC(=O)C=C(c3ccc(OC(F)(F)F)cc3)C2)cc1OC,inconclusive: -35.5%
14,O=C(Nc1ccc2c(c1)OCO2)C1CCN(Cc2cnn(-c3ccccc3)c2-n2cccc2)CC1,inconclusive: -48.5%
15,Cc1cc(OC(C)C(=O)NCc2ccncc2)c2c(C)c(C)c(=O)oc2c1 (centres undefined),inconclusive: -30.7%
16,COc1cccc(CNC(=O)Cn2ccc3cc(S(=O)(=O)N4CCCCCC4)ccc32)c1,inconclusive: -38.9%
17,CN1CCN(C(=O)CCN2C(=O)/C(=C\c3ccccc3F)SC2=S)CC1,active: -50.9%
18,COC(=O)Cn1nc(-c2ccc(C)cc2)c2ccccc2c1=O,inactive: -2.18%
19,Cc1[nH]nc(Nc2ccc(C(C)C)cc2)c1[N+](=O)[O-],active: -51.4%
20,Cn1cc(CN2CCN(c3ncccn3)CC2)c(-c2cccc(Cl)c2)n1,inconclusive: -42.8%
21,Oc1cccc(/C=N/n2c(C3CCCCC3)n[nH]c2=S)c1,inactive: 8.91%

row,SMILES,activity change
1,O=c1c2ccccc2sn1-c1ccccc1,active: -101%
2,Cn1c(N)c(C(=O)COC(=O)c2ccccc2C(=O)c2ccc(Cl)cc2)c(=O)n(C)c1=O,inconclusive: -38%
3,O=C(c1cccnc1)N1CCC2CC1c1c(Cl)cccc12 (centres undefined),inactive: 24.5%
4,COCc1c(C(=O)OC)nnn1-c1ccc(C(F)(F)F)cc1[N+](=O)[O-],active: -72.3%
5,CCOc1ccc(NC(=S)N(CCc2c(C)[nH]c3ccc(C)cc23)Cc2ccco2)cc1,inconclusive: -36.1%
6,Cc1ccc(S(=O)(=O)N2CCN(C(=O)c3ccc(N4CCCCC4)c([N+](=O)[O-])c3)CC2)cc1,active: -61.9%
7,Cc1cc(Cl)ccc1OCc1nc(-c2ccncc2)no1,active: -55.8%
8,CCOC(=O)CNS(=O)(=O)c1cc(-c2nnc(Nc3ccc4c(c3)OCO4)c3ccccc23)ccc1C,active: -102%
9,O=[N+]([O-])c1cccc(-c2nnc3cccc(Cl)n23)c1,inactive: 22.2%
10,CCOC(=O)C(=Cc1ccc(-n2cncn2)cc1)C(=O)OCC,active: -99.5%
11,CC(=O)Nc1cccc(NC(=O)c2cc(-c3cccnc3)nc3ccc(Cl)cc23)c1,inconclusive: -46.8%
12,Cc1ccc(S(=O)(=O)c2nc(-c3cccs3)oc2SCC(N)=O)cc1,inactive: 6.78%
13,CCCCN(C)CCNC(=O)c1cc2c(-c3cccc(OC)c3)nn(C)c2s1,active: -86.7%
14,COc1ccc2nc(NC(=O)C3CSC4(C)CCC(=O)N34)sc2c1 (centres undefined),inconclusive: -48.2%
15,CCOc1ccc(/C=N/NC(=O)c2cc3c(OC)cccc3[nH]2)cc1,inconclusive: -48.9%
16,O=C(Nc1ccc2c(c1)CCC2)c1ccc(Br)s1,inconclusive: -39.4%
17,Cc1ccc(-n2nc3c(c2NC(=O)CC(C)C)CS(=O)(=O)C3)cc1,inactive: 1.35%
18,O=C1C2CC=CCC2C(=O)N1Cc1ccccc1Cl (centres undefined),inactive: 20.4%
19,COc1cccc(-n2nc(-c3ccnn3-c3ccccc3)c(=O)n(C)c2=O)c1,inconclusive: -45.5%
20,Cc1ccc(S(=O)(=O)N2C[C@@]3(O)Cn4c(=O)ccc(=O)n4C[C@@]3(OC(=O)NCc3ccccc3F)C2)cc1,inconclusive: -45.7%
21,O=C1c2cccc3c([N+](=O)[O-])c(O)cc(c23)C(=O)N1Nc1ccccc1,inconclusive: -35.6%

row,SMILES,activity change
1,CCc1ccc(NC(=O)Nc2cccc(OC)c2)cc1,inconclusive: -38.9%
2,Cc1ccc(/C(O)=C2/C(=O)C(=O)N(c3ccccn3)C2c2ccc(F)cc2)cc1 (centres undefined),inconclusive: -36%
3,COc1cccc(N/C(SCc2ccccc2C)=C(/C#N)C(=O)NCc2cccs2)c1,inactive: -4.5%
4,COc1ccc(CNC(=O)C[C@H]2C(=O)N(CCc3ccccc3)C[C@@H]2Cc2ccccc2)cc1,inconclusive: -41.6%
5,Cc1occc1C(=O)NNC(=O)c1ccccc1C(=O)O,inconclusive: -31.1%
6,COc1cccc(C(=O)C2CCCN(Cc3cn(CC(N)=O)c4ccccc34)C2)c1 (centres undefined),inconclusive: -33%
7,Cc1c(C(=O)Nc2ccc3c(c2)OCO3)oc2ccccc12,inconclusive: -45.7%
8,Cc1cc2cc(C=C(C#N)C#N)c(Cl)nc2cc1C,active: -100%
9,COCCCNC(=O)C[C@H]1C[C@H](C(=O)N2CCOCC2)[C@@]2(CCC3CCCC3)c3[nH]c4cc(-c5ccco5)ccc4c3CCN2C1=O,inconclusive: -36.9%
10,CC(C)CNC(=O)c1cc(-c2ccc3c(c2)OCO3)on1,inconclusive: -40.7%
11,COCCOc1ccc(C(F)(F)F)cc1N,inactive: -1.44%
12,Cc1cc(C)cc(NC(=O)C2CCN(C(=O)[C@@H]3Cc4ccccc4CN3)CC2)c1,inconclusive: -37.3%
13,COC(CNC(=O)Cn1nc(Cc2ccncc2)c2ccccc2c1=O)OC,inactive: -7.58%
14,CC(=O)C(C(C)=O)c1c(Cl)c(O)c(O)c2c(C(=O)c3ccccc3)coc12,inactive: -16.4%
15,O=C(c1ccc(COc2ccccc2Cl)o1)N1CCCC1,inconclusive: -32.2%
16,OCCN(/C=N/c1nc(-c2ccc(Br)cc2)cs1)CCO,inconclusive: -30.2%
17,Cc1cc2c(OCC(O)CNC3CCCCC3)cccc2[nH]1 (centres undefined),inconclusive: -35.9%
18,CCCCc1c(-c2ccc(F)cc2)ncn1CCc1ccccc1OC,inconclusive: -47.2%
19,CCC1CSC(Nc2ccc(C(=O)/C=C/c3ccc(Br)cc3)cc2)=N1 (centres undefined),active: -92.9%
20,CCN1C(=O)c2ccccc2Sc2ccc(C(=O)NCCCN3CCCCC3)cc21,inconclusive: -34.8%
21,CC(=O)c1c(C)n(-c2ccccc2Br)c2ccc(O)cc12,inactive: 10.7%

# Reference: PubChem BioAssay AID743279 (National Center for Advancing Translational Sciences (NCATS), 2014)
